Assay results taken from patent publication US20250228917A1 (SALUBRIS BIOTHERAPEUTICS, published 2025).

Assays:
[1] = target: T1, human HER3 antigen (human, UniProt P21860 part only, limits assumed); test: BIAcore SPR, 1:1 binding model (Group 1)
T1 construct: also called HER3 (human)

[2] = target: T2, monkey HER3 antigen (monkey); test: BIAcore SPR, 1:1 binding model (Group 2)
T2 construct: also called HER3 (monkey)

[3] = target: T3, mouse HER3 antigen (mouse, UniProt Q61526 20-641, limits assumed); test: BIAcore SPR, 1:1 binding model (Group 3)
T3 construct: also called HER3 (mouse)

[4] = target: T4, rat HER3 antigen (rat, UniProt Q62799 20-643, limits assumed); test: BIAcore SPR, 1:1 binding model (Group 4)
T4 construct: also called HER3 (rat)
T4 sequence (Q62799 20-643 limits assumed): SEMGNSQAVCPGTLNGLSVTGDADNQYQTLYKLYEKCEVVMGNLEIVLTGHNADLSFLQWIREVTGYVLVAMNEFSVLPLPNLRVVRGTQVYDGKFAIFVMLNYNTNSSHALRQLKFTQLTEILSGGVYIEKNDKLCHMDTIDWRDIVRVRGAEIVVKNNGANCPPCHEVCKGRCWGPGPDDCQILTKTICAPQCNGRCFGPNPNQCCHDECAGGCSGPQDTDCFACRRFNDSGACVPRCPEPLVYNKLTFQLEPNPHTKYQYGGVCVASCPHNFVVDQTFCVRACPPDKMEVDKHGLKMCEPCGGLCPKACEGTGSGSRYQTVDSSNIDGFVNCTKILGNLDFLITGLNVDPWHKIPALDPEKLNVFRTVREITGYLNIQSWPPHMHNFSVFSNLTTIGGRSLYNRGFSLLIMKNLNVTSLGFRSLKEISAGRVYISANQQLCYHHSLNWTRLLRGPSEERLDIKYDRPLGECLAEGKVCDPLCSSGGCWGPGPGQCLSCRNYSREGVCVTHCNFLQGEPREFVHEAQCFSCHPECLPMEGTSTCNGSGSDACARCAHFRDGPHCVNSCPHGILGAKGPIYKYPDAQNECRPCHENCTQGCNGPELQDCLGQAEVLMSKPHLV

T3 sequence (Q61526 20-641 limits assumed): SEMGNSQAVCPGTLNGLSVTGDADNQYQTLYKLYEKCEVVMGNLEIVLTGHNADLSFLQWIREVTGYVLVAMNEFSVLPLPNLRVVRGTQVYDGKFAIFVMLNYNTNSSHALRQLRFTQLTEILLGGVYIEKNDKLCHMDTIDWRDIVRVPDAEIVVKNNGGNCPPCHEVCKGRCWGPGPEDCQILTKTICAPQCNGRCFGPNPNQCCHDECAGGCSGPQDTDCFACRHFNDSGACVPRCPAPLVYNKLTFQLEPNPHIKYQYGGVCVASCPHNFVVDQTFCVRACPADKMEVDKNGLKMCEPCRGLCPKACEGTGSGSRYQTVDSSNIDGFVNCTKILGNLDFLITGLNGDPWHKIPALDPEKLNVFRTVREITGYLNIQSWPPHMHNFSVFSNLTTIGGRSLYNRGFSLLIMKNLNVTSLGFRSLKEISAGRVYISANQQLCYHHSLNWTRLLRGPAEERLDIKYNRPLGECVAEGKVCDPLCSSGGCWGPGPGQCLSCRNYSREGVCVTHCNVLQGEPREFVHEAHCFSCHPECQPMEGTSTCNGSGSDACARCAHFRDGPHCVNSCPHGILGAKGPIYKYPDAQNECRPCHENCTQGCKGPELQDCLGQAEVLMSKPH

koff [1]: 0.000228 s⁻¹
kon [1]: 727000 M⁻¹ s⁻¹
koff [2]: 0.000264 s⁻¹
kon [2]: 666000 M⁻¹ s⁻¹
koff [3]: 0.00251 s⁻¹
kon [3]: 906000 M⁻¹ s⁻¹
koff [4]: 0.003 s⁻¹
kon [4]: 1.12e+06 M⁻¹ s⁻¹
B1: anti-HER3 mAb/NRG-1 fusion protein (recombinant fusion protein with Fc mutations) (other)
heavy: QVQLQQWGAGLLKPSETLSLTCAVYGGSFSGYYWSWIRQPPGKGLEWIGEINHSGSTNYNPSLKSRVTISVETSKNQFSLKLSSVTAADTAVYYCARDKWTWYFDLWGRGTLVTVSSASTKGPSVFPLAPSSKSTSGGTAALGCLVKDYFPEPVTVSWNSGALTSGVHTFPAVLQSSGLYSLSSVVTVPSSSLGTQTYICNVNHKPSNTKVDKRVEPKSCDKTHTCPPCPAPEFLGGPAVFLFPPKPKDTLMISRTPEVTCVVVDVSHEDPEVKFNWYVDGVEVHNAKTKPREEQYNSTYRVVSVLTVLHQDWLNGKEYKCKVSNKALPAPIEKTISKAKGQPREPQVYTLPPSREEMTKNQVSLTCLVKGFYPSDIAVEWESNGQPENNYKTTPPVLDSDGSFFLYSKLTVDKSRWQQGNVFSCSVMHEALHAHYTQKSLSLSPGKGGGGSGGGGSSHLVKCAEKEKTFCVNGGECFMVKDLSNPSRYLCKCPNEFTGDRCQNYVMASFYKAEELYQ
light: [left out - about 200 residues]
notes: It carries the Fc mutations L234F, S239A and N434A; Made in CHO-derived HD-BIOP3 cells; also called the recombinant fusion protein disclosed herein; NRG-1/HER3 antibody fusion protein
